Measured values reported in ChEMBL document CHEMBL4888484, “Replenishing the malaria drug discovery pipeline: Screening and hit evaluation of the MMV Hit Generation Library 1 (HGL1) against asexual blood stage Plasmodium falciparum ,using a nano luciferase reporter read-out” (2022).
In all, about 150,000 compounds went through this assay and about 540 (0.36%) showed an effect of 50% or more. This is one part of the list.

These molecules were tested on Plasmodium falciparum (assay: Primary screen in NF54 nanoGlo assay, in single point, at 2uM, 72h; a lower Z score goes with more inhibition). Details: timepoint 72 hour.
Type: functional, Erythrocyte
With `CCN(CC(C)(C)O)C(=O)N[C@@H](C)Cc1ccsc1` the “% Inhibition” value was 2% and the Z score was -0.41.
In the case of `CCc1ccnc(CNc2ncc(Br)c(OC(C)(C)C)n2)c1`, the “% Inhibition” value is reported as -7% and the Z score is reported as 1.06.
`O=C(NCCOCCn1ccnc1)Nc1nccs1` was tested, and the “% Inhibition” value was 2% and the Z score was -0.34.
`COc1ccc(-c2nc(-c3nnn(Cc4ccc(F)cc4)c3C)no2)c(OC)c1` was tested, and the “% Inhibition” value was -16% and the Z score was 3.23.
`Cc1nnc(O)nc1NCCc1ccccc1` was tested, and the “% Inhibition” value was 5% and the Z score was -0.99.
With `CCC(C)N(C(C)CC)S(=O)(=O)c1ccccc1` (stereo not drawn) the “% Inhibition” value was -11% and the Z score was 1.35.
`Cc1cccc(Cl)c1NC(=O)Cn1c(=O)n(Cc2cccc(Cl)c2)c(=O)c2ccccc21` was tested, and the “% Inhibition” value was 34% and the Z score was -3.83.
For `CCC(=O)N1CC[C@H](C(=O)NS(=O)(=O)CC(C)C)C1`, the “% Inhibition” value was 2% and the Z score was -0.33.
With `CC(C)Cn1cncc1Cn1ccnc1[C@H]1CCOC(C)(C)C1` the “% Inhibition” value was 7% and the Z score was -0.93.
`CCOc1cc(CNC(=O)N2CC(O)C2)ccc1OC` was tested, and the “% Inhibition” value was 4% and the Z score was -0.75.
With `CCCn1cc(NC(=O)N[C@H]2CCCC[C@@H]2O)cn1` the “% Inhibition” value was -5% and the Z score was 0.79.
`Cc1nnccc1NC(=O)NCCc1cccc2c1OCCO2` was tested, and the “% Inhibition” value was -5% and the Z score was 0.88.
In the case of `Cc1ccc2c(c1)c1c(n2S(=O)(=O)c2ccc(C(C)(C)C)cc2)CCCN(C)C1`, the “% Inhibition” value is reported as 67% and the Z score is reported as -13.88.
In the case of `Cc1nn(C)cc1-c1cc(-c2cn(C)nc2C)n(-c2ccc(Cl)c(Cl)c2)n1`, the “% Inhibition” value is reported as 32% and the Z score is reported as -3.57.
`Cc1cccc(C2(C(=O)N3CCCN(C(N)=O)CC3)CCCC2)c1` was tested, and the “% Inhibition” value was -3% and the Z score was 0.49.
In the case of `CCn1cnnc1NC(=O)[C@H](C)n1nnnc1C(C)(C)C`, the “% Inhibition” value is reported as -8% and the Z score is reported as 1.51.
For `Cc1oc2ncnc(NCc3n[nH]c(=O)[nH]3)c2c1C`, the “% Inhibition” value was -13% and the Z score was 1.85.
`Cc1ccc([C@]2(C)NC(=O)N(Cc3ccccc3C)C2=O)o1` was tested, and the “% Inhibition” value was -2% and the Z score was 0.38.
For `Cn1cccc1[C@@H](O)CCNC(=O)c1ccc(Br)o1`, the “% Inhibition” value was 0% and the Z score was 0.04.
For `COc1ccc(NC(=O)N2CC[C@@](F)(C(=O)NCc3ccccc3)C2)cc1`, the “% Inhibition” value was -15% and the Z score was 2.01.
`Cc1[nH]nc(-c2ccsc2)c1NC(=O)c1ccc(F)cc1F` was tested, and the “% Inhibition” value was 6% and the Z score was -0.72.
For `c1ccc(-c2ccc(OCc3cn4cccnc4n3)cc2)cc1`, the “% Inhibition” value was -11% and the Z score was 1.54.
For `CCc1cc(N2CCC(CCn3ccnc3C)CC2)n2nccc2n1`, the “% Inhibition” value was -2% and the Z score was 0.21.
With `COc1cc(NC(=O)[C@@H]2C[C@H]3CC[C@@H]2O3)ccn1` the “% Inhibition” value was 5% and the Z score was -0.54.
In the case of `COc1ccc(Cn2cc(F)ccc2=O)cn1`, the “% Inhibition” value is reported as 1% and the Z score is reported as -0.16.
With `COC(=O)c1cc(OCC(=O)Nc2ccc(OC)c(Cl)c2)c2cc(C)ccc2n1` the “% Inhibition” value was -10% and the Z score was 1.79.
In the case of `CN1CCOCC1C(=O)NCC(NC(=O)C1COCCN1C)C1CCCCC1` (stereo not drawn), the “% Inhibition” value is reported as 26% and the Z score is reported as -2.96.
With `CN(C)Cc1nc(C(=O)N[C@@H]2[C@@H]3CCO[C@@H]3[C@H]2N(C)C)cs1` the “% Inhibition” value was -15% and the Z score was 2.26.
With `C[C@H](NCc1cn(C)c(=O)n(C)c1=O)c1ccc(F)c(F)c1` the “% Inhibition” value was 6% and the Z score was -1.18.
With `CC(C)[C@@H](c1ccc(F)cc1)N(C)CCCC1(C#N)CCOCC1` the “% Inhibition” value was -2% and the Z score was 0.29.
`CC(=O)Nc1ccc(-c2cc(C(=O)N[C@H](c3cccs3)C(C)C)c3ccccc3n2)cc1` was tested, and the “% Inhibition” value was -8% and the Z score was 1.26.
With `C[C@H](NS(=O)(=O)N1CCCCC1)c1ccc(S(C)(=O)=O)cc1` the “% Inhibition” value was -6% and the Z score was 0.81.
With `Cc1ccc(-c2n[nH]c(C)c2NC(=O)CC(C)C)c(C)c1` the “% Inhibition” value was -15% and the Z score was 2.05.
`CCC1(CC)CN(C(=O)c2n[nH]nc2C)CCO1` was tested, and the “% Inhibition” value was -10% and the Z score was 0.94.
With `CN1CCN(c2nc3c(c(N(C)C)n2)CN(C(=O)Cc2ccccc2)CC3)CC1` the “% Inhibition” value was 10% and the Z score was -1.25.
With `Cc1cccc(NC(=O)[C@H]2CCCN(C(=O)Cc3cccc4ccccc34)C2)c1C` the “% Inhibition” value was -5% and the Z score was 0.85.
With `CCOCCN1CCC[C@H](c2nnc[nH]2)C1` the “% Inhibition” value was -2% and the Z score was 0.19.
In the case of `CC(C)c1cc(C(=O)N2CCCCC[C@H]2c2noc(-c3cnn(C)c3)n2)nn1C`, the “% Inhibition” value is reported as -13% and the Z score is reported as 1.48.
`CN1CCN(c2ncnc(-c3ccc(F)c(F)c3)c2N)CC1` was tested, and the “% Inhibition” value was -12% and the Z score was 1.6.
`CCc1nnc(C(=O)Nc2ccc(C(=O)N3CCOCC3)cc2)s1` was tested, and the “% Inhibition” value was -10% and the Z score was 1.12.
`CCOC1CC(NC(=O)c2cnc(-c3cnn(C)c3)s2)C12CCCC2` (stereo not drawn) was tested, and the “% Inhibition” value was -5% and the Z score was 0.93.
`COCCn1c(C)cc(=O)c(C(=O)NCCCn2ccnc2)c1CC1CCCC1` was tested, and the “% Inhibition” value was -6% and the Z score was 0.77.
With `CC[C@H]1CN(c2ncc(C(C)(C)C(=O)O)c(N3CCOCC3)n2)CCN1` the “% Inhibition” value was 4% and the Z score was -0.49.
For `O=C(Cn1[nH]c2ccccc2c1=O)N1CCC[C@H](CO)C1`, the “% Inhibition” value was -2% and the Z score was 0.34.
`COc1cc(-c2cn(Cc3cc(C(C)(C)C)n[nH]3)nn2)cc2c1OCO2` was tested, and the “% Inhibition” value was -4% and the Z score was 0.67.
With `Cc1cnc(OC2CCN(Cc3cnc4ccnn4c3)CC2)nc1` the “% Inhibition” value was -6% and the Z score was 0.95.
For `Cc1ccc(-c2cn3c(O)cc(C)nc3n2)cc1`, the “% Inhibition” value was 4% and the Z score was -0.44.
In the case of `Cc1cc(C)n2ncc(CN3CCc4[nH]nc(C(C)C)c4C3)c2n1`, the “% Inhibition” value is reported as -4% and the Z score is reported as 0.8.
With `O=C1O[C@H](C(=O)Nc2ccc(-n3cncn3)nc2)Cc2ccccc21` the “% Inhibition” value was -15% and the Z score was 2.77.
In the case of `COc1ccc(Cl)cc1S(=O)(=O)N(CCC(=O)N1CCNCC1)Cc1ccc(F)cc1`, the “% Inhibition” value is reported as 3% and the Z score is reported as -0.57.
For `Cc1cc(-c2nc(-c3ccc(N4CCCCC4)cc3)no2)ccn1`, the “% Inhibition” value was 10% and the Z score was -1.32.
In the case of `CCO[C@@]1(C)C[C@H]1NC(=O)N[C@H]1C[C@H]1C(F)F`, the “% Inhibition” value is reported as -9% and the Z score is reported as 1.68.
`CC(=O)N1CCC[C@H](c2[nH]ccc2C(=O)NCc2cc(C)nn2C)C1` was tested, and the “% Inhibition” value was -21% and the Z score was 2.42.
With `CC(=O)Nc1nccc2c1[nH]c(=O)n2C` the “% Inhibition” value was -15% and the Z score was 1.92.
In the case of `Cc1ccc(CN(C)C)cc1NC(=O)CCCc1nccs1`, the “% Inhibition” value is reported as -11% and the Z score is reported as 1.44.
With `COC1CCN(C(=O)N2CCO[C@@H](COCC3CC3)C2)CC1` the “% Inhibition” value was 15% and the Z score was -1.7.
With `CCc1nccc(CN2CCC(C)(C#N)CC2)n1` the “% Inhibition” value was 6% and the Z score was -1.2.
`COc1ccc2c(c1)[C@H](C(=O)NCCN1CC=C(C)CC1)CCC2` was tested, and the “% Inhibition” value was 2% and the Z score was -0.32.
In the case of `C[C@@H](CC#N)N(C)C(=O)C(=O)Nc1cc(Br)ccc1F`, the “% Inhibition” value is reported as -6% and the Z score is reported as 0.78.
With `Cc1nn(C(C)C)c(C)c1CN(C)C(=O)c1ccc([C@H]2CCCNC2)cc1` the “% Inhibition” value was -9% and the Z score was 1.22.
With `CCN1CCN(c2c(CN(CC(C)C)C(=O)C3CCCC3)c(C)nn2-c2cccc(F)c2)CC1` the “% Inhibition” value was 5% and the Z score was -0.6.
For `C[C@@H](Cc1cccc(Cl)c1)C(=O)NCCC(=O)O`, the “% Inhibition” value was 3% and the Z score was -0.63.
In the case of `C1CNC[C@@H](Oc2nc(C3CC3)nc3c2CCOCC3)C1`, the “% Inhibition” value is reported as -7% and the Z score is reported as 1.15.
`CCOc1nnc(CN2CCC[C@H](c3cc(C(N)=O)[nH]n3)C2)s1` was tested, and the “% Inhibition” value was -11% and the Z score was 1.63.
With `Cc1cc(C)c(CN2CCO[C@@H](CCN(C)C)C2)c(-n2cccn2)c1` the “% Inhibition” value was -9% and the Z score was 1.31.
For `O=C(Nc1cccc2ccccc12)[C@H]1CCCN(c2c(-c3ccccc3)c3cc(Cl)ccc3[nH]c2=O)C1`, the “% Inhibition” value was -33% and the Z score was 3.9.
`Cc1n[nH]c(C)c1Cn1cnc(-c2ccccc2)c1-c1ccco1` was tested, and the “% Inhibition” value was -23% and the Z score was 4.39.
For `Cn1cc(C(=O)N2CCN(Cc3ccoc3)C[C@H](O)C2)cn1`, the “% Inhibition” value was -7% and the Z score was 0.72.
With `Cc1ccc(-n2c(=O)c3sccc3n(CC(=O)NCCc3ccc(Cl)cc3)c2=O)c(C)c1` the “% Inhibition” value was -2% and the Z score was 0.38.
`Cc1nc([C@H](C)NC(=O)c2cccn(C)c2=O)cs1` was tested, and the “% Inhibition” value was 2% and the Z score was -0.24.
In the case of `C[C@H](NCc1cnc2n1CCCC2)c1ccc(-n2cnnn2)cc1`, the “% Inhibition” value is reported as 5% and the Z score is reported as -0.87.
For `CCC(NC(=O)c1c[nH]c2cc(C)nn2c1=O)[C@H]1C[C@@H](O)C1` (stereo partly drawn), the “% Inhibition” value was -8% and the Z score was 0.79.
With `COc1ccc(-c2ccc(N3CCN(C(=O)CN(C(C)=O)[C@@H](C)c4ccccc4)CC3)nn2)cc1OC` the “% Inhibition” value was -20% and the Z score was 1.74.
In the case of `C=C(C)c1nc(C#N)c(NCc2ccc3c(c2)OCO3)o1`, the “% Inhibition” value is reported as -18% and the Z score is reported as 2.74.
For `COc1cc(-n2cnnn2)ccc1NC(=O)CCc1ccnn1C`, the “% Inhibition” value was -24% and the Z score was 2.43.
With `COc1ccc(-c2cnc3nnc(C)n3c2)cc1F` the “% Inhibition” value was -5% and the Z score was 0.86.
In the case of `CCO[C@H]1CN(CC(=O)Nc2cnn(C)c2)C[C@@H]1O`, the “% Inhibition” value is reported as 6% and the Z score is reported as -0.97.
In the case of `Cc1ccc(-c2ccc(C(=O)NC3(C(N)=O)CCCCCC3)cc2)nc1`, the “% Inhibition” value is reported as 3% and the Z score is reported as -0.47.
`CC(C)CC1NC2(C(=O)N(Cc3ccc(F)cc3)c3ccccc32)C2C(=O)N(c3ccccc3)C(=O)C12` (stereo not drawn) was tested, and the “% Inhibition” value was 36% and the Z score was -4.01.
With `CCOCCC(=O)N1CC[C@H](C(C)(C)O)C1` the “% Inhibition” value was -3% and the Z score was 0.41.
With `COc1ccccc1Cc1nc(CN2CCOCC2)n(C(C)(C)C)n1` the “% Inhibition” value was -7% and the Z score was 0.93.
For `C[C@H](Nc1nnc(C(C)(C)C)s1)c1nnc2n1CCC2`, the “% Inhibition” value was -1% and the Z score was 0.07.
With `CCc1cccc(OC2CN(Cc3ccc(OC)c(O)c3)C2)c1` the “% Inhibition” value was -28% and the Z score was 2.61.
`C[C@@H](C(=O)Nc1cc(C2CCCC2)[nH]n1)c1cccnc1` was tested, and the “% Inhibition” value was -7% and the Z score was 1.38.
